# According to US20230272055A1, “ANTI-MUTANT CALRETICULIN (CALR) ANTIBODIES AND USES THEREOF” (Incyte Corporation, priority 2021, published 2023):
# B1: 65 (antibody)
# heavy: EVQLVQSGAEVKKPGASVKVSCKVSGYTLTELSMQWVRQAPGKGLEWMGGFDPDDGETMYAEKFQGRLTVTEDTSTDTVYMELRSLTSEDTALYFCATSPGYDFFDYWGQGTLVTVSSASTKGPSVFPLAPSSKSTSGGTAALGCLVKDYFPEPVTVSWNSGALTSGVHTFPAVLQSSGLYSLSSVVTVPSSSLGTQTYICNVNHKPSNTKVDKRV[omitted - human IgG1 Fc with changes]
# light: SYVLTQPPSVSVAPGKTARITCTGTSSDVGGYNYVSWYQQKPGQAPVLVVYEVSNRPSGIPERFSGSNSGNTATLTISRVEAGDEADYYCQVWDSSNDLLIFGGGTKLTVLGQPKAAPSVTLFPPSSEELQANKATLVCLISDFYPGAVTVAWKADSSPVKAGVETTTPSKQSNNKYAASSYLSLTPEQWKSHRSYSCQVTHEGSTVEKTVAPTECS
# B2: 74 (antibody)
# heavy: EVQLVQSGAEVKKPGASVKVSCKVSGYTLTELSMQWVRQAPGKGLEWMGGFDPDDAETMYAEKFQGRLTVTEDTSTDTVYMELSSLRSEDTAVYFCATSPGYDFFDYWGQGTLVTVSSASTKGPSVFPLAPSSKSTSGGTAALGCLVKDYFPEPVTVSWNSGALTSGVHTFPAVLQSSGLYSLSSVVTVPSSSLGTQTYICNVNHKPSNTKVDKRV[omitted - human IgG1 Fc with changes]
# light: SYVLTQPPSVSVAPGKTARITCTGTSSDVGGYNYVSWYQQKPGQAPVLVVYEVSNRPSGIPERFSGSNSGNTATLTISRVEAGDEADYYCQVWDSSNDLLIFGGGTKLTVLGQPKAAPSVTLFPPSSEELQANKATLVCLISDFYPGAVTVAWKADSSPVKAGVETTTPSKQSNNKYAASSYLSLTPEQWKSHRSYSCQVTHEGSTVEKTVAPTECS
# Tests used:
# [1] = test system: CD34+ cells from MPN patients carrying the CALR mutation; experiment: Differentiation of CD34+ cells into megakaryocytes (CD41+CD42b+, flow cytometry); type: cell-based, human; details: 6 days; dose-dependent; FIG. 19B
# Protocol: (§1) CD34^+ cells isolated from MPN patients carrying the CALR mutation were used to characterize the ability of an anti-mutCALR antibody to inhibit the mutCALR-derived oncogenic function. Peripheral blood mononuclear cells (PBMCs) were isolated from non-identified blood samples from MPN patients by Ficoll gradient extraction (Fisher Scientific) and CD34^+ cells were enriched using magnetic enrichment (Miltenyi Biotec). CD34^+ cells were cultured for seven days in SFEM-II media ([…] Technologies) containing hSCF, hFLT3L, TPO, LDL2698, SR1, and UM171.
# To evaluate the ability of antibodies to inhibit mutCALR oncogenic function and imbalanced proliferation of megakaryocytes, CD34^+ cells (50,000 cells/well) were added to a 12-well plate with SFEM-II supplemented with hSCF, hGCSF, hIL3, and hIL6 and treated with a mutCALR antibody or isotype control for 6 days. Cells were stained and analyzed by flow cytometry (LSRFortessam X-20 analyzer, BD Biosciences). Antibodies used were: APC anti-human CD38 antibody (BioLegend), FITC anti-human lineage cocktail (BioLegend), PE/Cyanine7 anti-human CD34 antibody (BioLegend), PE anti-human CD41 antibody (BioLegend), APC mouse anti-human CD42b antibody (BD Pharmingen). Megakaryocytes were identified as the CD41^+CD42b^+ cells.
# [2] = test system: Ba/F3 cells transfected with MPL and mutCALR Type 1; experiment: Inhibition of cell proliferation, CellTiter-Glo 72 hours, mutCALR Type 1; type: cell-based; details: Ba/F3 engineered cells, high-throughput primary screening
# Summary of the method: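 Anti-mutCALR antibodies were added to engineered Ba/F3 cells (MPL with Type 1 or Type 2 mutCALR; 5,000/well, RPMI 1640, 2% FBS). Proliferation was scored as CellTiter-Glo luminescent viability following a 72 h incubation.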
# [3] = test system: pSTAT5 in CD34+ cells isolated from MPN patients; experiment: pSTAT5 in primary patient CD34+ cells (Meso Scale); type: cell-based, human; details: FIG. 19A
# Protocol: as §1
# CD34+ cells (50,000 cells/well) were then plated into 96-well plates and treated with a mutCALR or isotype control antibody for 2 hours. Following treatment, plates were centrifuged, the supernatant was aspirated and subsequently washed with PBS. After centrifugation the cell pellets were lysed using lysing buffer (Cell Signaling Technologies) supplemented with 1× Halt™ Protease and Phosphatase Inhibitor Cocktail (Thermo Fisher Scientific). Lysates were added to the Phospho (Tyr694)/Total STAT5a,b whole cell lysate kit (Meso Scale Diagnostics) and phospho-STAT5 levels were then quantitated using Meso Sector S 600 (Meso Scale Diagnostics). […] Moreover, pSTAT5 was not inhibited in CD34+ cells harboring the V617F JAK2 mutation (FIG. 19A).
# [4] = test system: CD34+ cells from human cord blood (WT cells) or an MPN patient with mutCALR; experiment: Megakaryopoiesis with clone 74 and ruxolitinib co-treatment; type: cell-based; details: six days, FIG. 19D; for frequency/production of megakaryocytes: single agent (25 nM ruxolitinib or 25 μg/mL clone 74)
# Text: In another experiment, Clone 74 and ruxolitinib were combined to determine the impact of co-treatment on megakaryopoiesis produced by CD34^+ cells from human cord blood (WT cells) or an MPN patient with mutCALR (mutCALR cells).
# [5] = test system: pSTAT3 and pSTAT5 in CD34+ cells harboring mutCALR; experiment: Western blot of pSTAT3 and pSTAT5 in CD34+ cells; type: cell-based, human; details: 12 hours, dose-dependent, FIG. 19C
# Protocol: In another experiment, the CD34^+ cells described above were added at 50,000 cells/well to a 12-well plate containing 2.0 mL culture media with specified concentrations of clone 74 or isotype control. The treatment period was 12 hours. After 12 hours, cells were collected, washed and lysed using lysing buffer (Cell Signaling Technologies) supplemented with 1× Halt™ Protease and Phosphatase Inhibitor Cocktail (Thermo Fisher Scientific). Protein samples (6 μg) were separated in pre-casted 4-12% TrisGglycine gels (Thermo Fisher Scientific) and transferred to nitrocellulose membranes using iBlot 2 Dry Blotting System and iBlot™ 2 Transfer Stacks (Thermo Fisher Scientific). The nitrocellulose membranes were blocked with StartingBlock (Thermo Fisher Scientific) for one hour and probed with antibodies to detect pSTAT5 (Cell Signaling), STAT5 (Cell Signaling), pSTAT3 (Cell Signaling), STAT3 (Cell Signaling), and β-actin (Cell Signaling). Detection was performed using horseradish peroxidase (HRP)-conjugated secondary rabbit antibody (Cell Signaling) and chemiluminescence HRP substrate (Thermo Scientific).
# [6] = test system: Ba/F3-TPOR/mutCALR type 1 engineered cells; experiment: Cell proliferation with antibody and/or ruxolitinib, mutCALR Type 1; type: cell-based; details: log value, 72 hours
# Protocol: To test the ability of anti-mutCALR antibodies to potentiate the therapeutic response of the JAK1/2 inhibitor ruxolitinib, Ba/F3 cells were engineered to express MPL+mutCALR Type 1 (52 bp deletion) or MPL+mutCALR Type 2 (5 bp insertion) as described above. Cells were plated at 5,000 cells per well in RPMI 1640+2% FBS, treated with 50 nM of ruxolitinib and/or anti-mutCALR antibodies. Cells were incubated for 72 hours followed by assessment of cell viability using the CellTiter-Glo Luminescent Cell Viability Assay (Promega, Madison, Wis.) and Top Count (Perkin Elmer, Boston, Mass.) or Pherastar (BMG Labtech, Ortenberg, Germany) for luminescence quantification. Ruxolitinib used at a concentration of 50 nM inhibited the level of oncogenic cell proliferation by approximately 20% (dotted line).
Molecule,differentiation of mutCALR CD34+ cells into mature megakaryocytes [1],IC50 inhibition of cell proliferation [2] [ng/mL],"pSTAT5 inhibition ([3]; CD34+ cells harboring mutCALR, 2 hours, dose-dependent)",pSTAT5 inhibition ([3]; CD34+ cells harboring the V617F JAK2 mutation),frequency/production of megakaryocytes ([4]; WT CD34+ cells (human cord blood)),pathogenic megakaryocytes produced by mutCALR+ CD34+ cells ([4]; combination of 25 nM ruxolitinib and 25 μg/mL of clone 74),frequency/production of megakaryocytes ([4]; mutCALR+ CD34+ cells),pSTAT3 inhibition (Western blot) [5],pSTAT5 inhibition (Western blot) [5],"Log IC50, Antibody alone [6] [μg/mL]","Log IC50, Antibody + ruxolitinib ([6]; with 50 nM ruxolitinib) [μg/mL]"
B1,selectively prevented the differentiation,0.3,,,,,,,,,
B2,selectively prevented the differentiation,1,selectively inhibited,not inhibited,but not from WT CD34^+ cells,further depletion,selectively reduced,selectively inhibited,selectively inhibited,−0.438,−1.458
